Measurements as given in PubChem BioAssay AID1468 (National Center for Advancing Translational Sciences (NCATS), 2008).
Several values for one entry are separate records, joined by “and”; a condition that tells them apart may be missing. Equal values may be shown once. Among all 280,000 compounds or so, about 1,100 (0.39%) were called active. Inconclusive results, whose numbers are uncertain, are shown with a selection of clear calls. The call rests on the fitted dose curve; in most records, active means well fitted inhibition curve with a large enough effect; inconclusive means small, poorly fitted or top-dose-only effect, or effect the other way; inactive means flat fitted curve, though single readings scatter. Where the call is inconclusive, the potency comes from a doubtful curve fit.

target: Microtubule-associated protein tau (Homo sapiens) (UniProt P10636); assay: qHTS for Inhibitors of Tau Fibril Formation, Fluorescence Polarization; conditions: K18 P301L tau heparin fibrillization, Alexa594 FP, 6 h; series mostly up to 57.7 µM; further: nearly all actives have a fitted effect of over 55% in size
Outline: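 Heparin (20 uM) drove fibril formation of recombinant tau K18 P301L, 15 uM unlabeled with 0.24 uM Alexa 594 label, for 6 hr at 37 C in 100 mM sodium acetate pH 7. Fluorescence polarization (555/632 nm) read 1 hr after 30 uM ThT.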
Potency means the concentration at half of the fitted maximal effect; tags describe the fitted curve by direction and shape.

UniProt P10636, sequence (P10636 whole entry, looked up): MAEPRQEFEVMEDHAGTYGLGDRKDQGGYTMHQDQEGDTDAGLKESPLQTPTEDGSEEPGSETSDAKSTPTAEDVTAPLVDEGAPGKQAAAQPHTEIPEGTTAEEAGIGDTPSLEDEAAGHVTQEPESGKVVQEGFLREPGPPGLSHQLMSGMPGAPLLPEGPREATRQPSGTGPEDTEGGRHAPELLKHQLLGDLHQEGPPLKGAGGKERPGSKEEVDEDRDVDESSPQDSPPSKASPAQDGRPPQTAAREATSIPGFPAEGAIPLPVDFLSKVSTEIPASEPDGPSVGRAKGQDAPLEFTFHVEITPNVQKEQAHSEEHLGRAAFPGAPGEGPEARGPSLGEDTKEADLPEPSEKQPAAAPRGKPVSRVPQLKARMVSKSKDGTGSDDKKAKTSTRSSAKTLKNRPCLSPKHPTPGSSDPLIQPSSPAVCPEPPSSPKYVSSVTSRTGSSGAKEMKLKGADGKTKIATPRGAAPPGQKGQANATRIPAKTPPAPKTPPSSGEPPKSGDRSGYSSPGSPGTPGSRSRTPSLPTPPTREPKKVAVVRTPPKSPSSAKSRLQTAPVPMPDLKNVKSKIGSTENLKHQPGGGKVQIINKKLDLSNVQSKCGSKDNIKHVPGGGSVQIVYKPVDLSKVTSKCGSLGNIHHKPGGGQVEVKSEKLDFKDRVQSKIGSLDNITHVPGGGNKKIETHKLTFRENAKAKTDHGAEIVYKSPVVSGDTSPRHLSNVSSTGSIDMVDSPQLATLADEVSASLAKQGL

Potency, active:
COc1cc2ncnc(Nc3ccc(F)c(Cl)c3)c2cc1OCCCN1CCOCC1 39.8 µM, O=C(Nc1cccc(-c2nc3ccccc3s2)c1)c1cccs1 22.4 µM

Potency, inactive:
CCC(C)n1c(SCc2ccc(F)cc2Cl)nc2ccsc2c1=O (stereo unspecified), Cc1ccc(NC(=O)CN2CCCCCC2)cc1Br, CCc1ccccc1-n1c(SCC(=O)Nc2ccc(C)cc2)nc2n[nH]c(C)c2c1=N, CCc1cccc(NC(=O)Cn2c(-c3ccc(F)cc3)cc(C(C)=O)c2C)c1, O=C1CS/C(=N/N=C/c2c[nH]c3ccccc23)N1, COc1cc2c(cc1OC)CN(CCC(=O)c1ccc(Br)cc1)CC2, COc1ccc(NC(=O)Cn2nnc(C(=O)Nc3ccccc3C)c2N)cc1, Cc1cccc(NS(=O)(=O)c2ccc3c(c2)n(C)c(=O)n3C)c1C, CNC(=O)c1cc2cccc(OC)c2oc1=O, COc1ccccc1N1CCN(S(=O)(=O)c2ccc3c(c2)CCCN3C(C)=O)CC1, COC(=O)/C(C#N)=C/c1c(-c2ccccc2)nc2n1CCS2, CC(C)(C)n1ncc(Oc2ccccc2[N+](=O)[O-])c(Cl)c1=O, CN(CC(=O)NC1CCCCCC1)S(=O)(=O)c1ccc2c(c1)n(C)c(=O)c(=O)n2C, Cc1cc(C)cc(Nc2nc3ccccc3n3cnnc23)c1, CCC(C)Nc1nc(SC(C(C)=O)C(C)=O)nc(N(C)C)n1 (stereo unspecified), COc1ccc(N/C=C/C(=O)c2sc(-c3ccccc3)nc2C)cc1, CCc1ccc(S(=O)(=O)c2nnn3c2nc(Nc2cc(OC)cc(OC)c2)c2cc(Cl)ccc23)cc1, O=C(Nc1nc2ccc(S(=O)(=O)N3CCCC3)cc2s1)c1ccc(F)cc1, CCOc1ccc(C(=O)CN2CCN(S(=O)(=O)c3ccc(OC)cc3)CC2)cc1, CC(C)Nc1nc(NNc2nc(Cl)nc(NC(C)(C)C)n2)nc(NC(C)C)n1, COc1ccc(-c2n[nH]c(C)c2-c2cc(OC)ccc2O)cc1, CCOC(=O)C1CCC(CN(Cc2c(Cl)cccc2Cl)S(=O)(=O)c2ccc(Cl)cc2)CC1 (stereo unspecified), Cc1ccccc1CN1C(=O)c2ccccc2Sc2ccc(C(=O)OCc3ccco3)cc21, CC(=O)Nc1ccc2nc(NC(=O)c3ccc([N+](=O)[O-])s3)sc2c1, Cn1ncc2c(c(SCc3ccc(Cl)cc3Cl)nn2C)c1=O, O=C(NCC1CCCO1)c1onc(CSc2ccccc2)c1C(=O)O (stereo unspecified), C[C@@H](C(=O)Nc1ccc2ccccc2c1)[C@@H]1C[C@@]1(C)[C@@H](NC(=O)c1ccncc1Cl)c1ccccc1, Cc1cc(C)c2c(N)c(C(=O)NC3CCCC3)sc2n1, CCc1ccc(NC(=O)CN2CCSc3ccc(S(=O)(=O)N4CCCC4)cc32)cc1, COc1ccccc1-c1c(C)nn2c(NCCN3CCCC3)cc(C)nc12

Potency, inconclusive:
CC(=O)Nc1ccc2c(c1)CN(c1cc(C)ccc1C)CO2 39.8 µM [activator, single point], Cc1onc(-c2ccccc2Cl)c1C(=O)NC(=S)NCC(=O)c1ccccc1 31.6 µM [inhibitor, single point], O=c1oc2ccccc2cc1-c1nc(-c2cccc(Cl)c2)cs1 25.1 µM [inhibitor, partial curve], COc1ccccc1NC(=O)CSc1nnc(Cn2c(=O)sc3ccccc32)n1C 20 µM [inhibitor, single point], Cc1ccccc1OCC(=O)N/N=C/c1ccc(Sc2nc3ccccc3s2)o1 31.6 µM [inhibitor, single point], CCCCOC(=O)c1ccc(NC(=O)c2ccc3c(c2)CCCN3S(C)(=O)=O)cc1 14.1 µM [inhibitor, partial curve], CCOC(=O)N1CCN(C(=O)CCCn2c(=S)[nH]c3ccc(Br)cc3c2=O)CC1 14.1 µM [inhibitor, single point], Fc1ccc(CNc2nc(-c3ccc(Cl)cc3)cc(C(F)(F)F)n2)cc1 4.47 µM [inhibitor, partial curve], C/C=C(/C)C(=O)O[C@@H]1c2c(ccc3ccc(=O)oc23)O[C@@H]1C(C)(C)OC(=O)/C(C)=C\C 28.2 µM [inhibitor, single point], COc1ccc(Nc2ncc(C(=O)Nc3ccc(F)cc3F)c3ccccc23)cc1 3.55 µM [activator, partial curve], COc1ccccc1C1c2[nH]c3ccccc3c2CCN1Cc1ccc(NC(C)=O)s1 (stereo unspecified) 17.8 µM [activator, single point], O=C(CCCn1c(=O)c2ccccc2n(CC(=O)Nc2cccc(Cl)c2)c1=O)NCc1ccc2c(c1)OCO2 35.5 µM [inhibitor, single point], CCOc1cc(C2C(C#N)=C(N)SC(N)=C2C#N)ccc1OCCN1CCOCC1 31.6 µM [inhibitor, single point], CCOc1cc(O)c(-c2[nH]ncc2-c2nc(C)cs2)cc1CC 44.7 µM [activator, single point], CC(=O)c1ccc(N2CCN(c3nc4c(S(=O)(=O)c5ccc(C)c(C)c5)nnn4c4ccc(Cl)cc34)CC2)cc1 0.708 µM [inhibitor, partial curve, poor fit], COc1ccc(COc2cc(-c3cccc(OC)c3)nc3ccc(NC(=O)c4ccc(C)cc4)cc23)cc1 12.6 µM [inhibitor, partial curve] and 31.6 µM [inhibitor, partial curve], CN1C(C(=O)c2ccccc2)=C(NC(=O)c2ccccc2Br)c2ccccc2S1(=O)=O 39.8 µM [inhibitor, single point], COc1ccc(NC(=O)Nc2cccc(OCc3cc(=O)n4cccc(C)c4n3)c2)c(OC)c1 3.55 µM [activator, full curve, poor fit], S=c1nc(Cc2ccc(Cl)cc2)[nH]c2ccccc12 44.7 µM [inhibitor, single point], O=S(=O)(c1ccc2[nH]c3c(c2c1)CCCC3)N1CCN(c2cccc(C(F)(F)F)c2)CC1 12.6 µM [inhibitor, partial curve], c1ccc2c(C[n+]3csc4ccccc43)cccc2c1 22.4 µM [inhibitor, single point], COc1ccc2[nH]c(=O)c(CN(Cc3ccco3)Cc3nnnn3Cc3ccccc3)cc2c1 39.8 µM [inhibitor, single point], CCOC(=O)/C(C)=N/NC(C)=O 0.1 µM [inhibitor, full curve, poor fit], COc1ccc(/C=C/C(=O)c2ccc(NC3=NCCCS3)cc2)cc1OC 3.98 µM [inhibitor, single point], Cc1cc(C)cc(NC(=O)Cn2nnc(C(=O)NCc3ccccc3Cl)c2N)c1 10 µM [inhibitor, partial curve], CS(=O)(=O)N(Cc1ccc(Cl)cc1)c1ccc(C(=O)N/N=C/c2cc3ccccc3nc2Cl)cc1 31.6 µM [inhibitor, partial curve], CCOc1ccccc1C(=O)Nc1cc(Cl)ccc1O 10 µM [activator, partial curve, poor fit], C/C(=N\NC(=O)CSCc1ccc(Cl)cc1)c1ccc(NC(=O)c2ccccc2)cc1 3.16 µM [inhibitor, single point], Cc1oc(-c2ccc(C(=O)NCCc3ccc(Cl)cc3)cc2)nc1CSc1ccccc1 39.8 µM [inhibitor, single point], COc1ccc(-n2nc(C(=O)NCCc3ccc(OC)c(OC)c3)c3c4ccccc4n(C)c3c2=O)cc1Cl 44.7 µM [inhibitor, single point], COc1cccc(CNc2ccc(N3CCCCC3)cc2)c1OC 25.1 µM [inhibitor, partial curve], O=C(NCc1ccccc1)c1ccc2c(c1)N(Cc1cccc(Cl)c1)C(=O)c1ccccc1S2(=O)=O 14.1 µM [inhibitor, partial curve], c1ccc(Nc2ncnc3ccc(-c4ccc5c(c4)OCO5)cc23)cc1 31.6 µM [inhibitor, partial curve, poor fit], N#C/C(=C1/C(=O)Nc2ccc(Br)cc21)c1ccccn1 25.1 µM [inhibitor, partial curve], Cc1cccc(OCc2nnc(N)s2)c1C 1.26 µM [inhibitor, single point], COc1ccc(CCNC(=O)CN2CCN(Cc3ccccc3F)C2=O)cc1OC 39.8 µM [inhibitor, single point], Cc1ccc2c(c1)sc[n+]2Cc1ccccc1 22.4 µM [inhibitor, single point], Cc1ccc(CNC(=O)Cn2c(=O)ccc3cc(S(=O)(=O)N4CCCC4)ccc32)cc1 8.91 µM [inhibitor, partial curve], CCCc1cc(=O)[nH]c(Nc2ccc(Cl)cc2)n1 39.8 µM [inhibitor, single point]
